± gives the standard deviation of the averaged measurements. Growth of baker's yeast expressing single-residue variants of Pneumocystis jirovecii dihydrofolate reductase in 8.8 or 44 µM methotrexate (about 75% and 90% inhibition of the wild type). Selection coefficient per generation; 0 = like wild type, above 0 = less sensitive, below 0 = more sensitive or loss of function. No active / inactive call per row; the paper calls resistant above 0.220 (8.8 µM) or 0.243 (44 µM) together with a significance test. At 44 µM about 15% of codons end with one read or none, so the lowest values are floors (replicate rank correlation 0.74; 0.94 at 8.8 µM).
B1: UniProt A0EPZ9; numbered along this chain (parent)
chain: MDWQKSLTLIVALTLSRGIGLKNDLPWKLKSDMMFFSRVTSGLLVTRSTGQMNVVLMGRKTWESLPAHSRPLKNRINVVISRQEVLDLGGGAYHARSLDDALALLSQIYDSTSKIQLNRVFVIGGGELCKAAMEHSRLNRIIATVIHNEVDCDVFFPIDFRSSQSCLPWRKQDHSVLEAWVGSKVPQGKINENGFIYEFEMWIRDI

Variants of: B1
Test: selection coefficient against synonymous wild-type codons (log2 per generation); higher = faster growth than wild type
Details: with Saccharomyces cerevisiae carrying the variant on a plasmid
Protocol: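 Pooled growth of yeast carrying single-residue variants of P. jirovecii dihydrofolate reductase (own DFR1 gene intact), two passages at 30 °C, three cultures, sequenced before and after. Codons with under 15 starting reads are left out; codons of one change are averaged.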

**Q.** Which “selection coefficient against synonymous wild-type codons (log2)” value (shortened to “selection coefficient … (log2)”) (methotrexate 8.8 µM) does the source give for MDWQKSLTLIVALTLSRGIGLKNDLPWKLKSDMMFFSLVTSGLLVTRSTGQMNVVLMGRKTWESLPAHSRPLKNRINVVISRQEVLDLGGGAYHARSLDDALALLSQIYDSTSKIQLNRVFVIGGGELCKAAMEHSRLNRIIATVIHNEVDCDVFFPIDFRSSQSCLPWRKQDHSVLEAWVGSKVPQGKINENGFIYEFEMWIRDI [R38L] here?
**A.** -0.0414 ± 0.096

**Q.** And the “selection coefficient … (log2)” value (methotrexate 44 µM)?
**A.** 0.007 ± 0.071

**Q.** For MDWQKSLTLIVALTLSRGIGLKNDLPWKLKSDMMFFSPVTSGLLVTRSTGQMNVVLMGRKTWESLPAHSRPLKNRINVVISRQEVLDLGGGAYHARSLDDALALLSQIYDSTSKIQLNRVFVIGGGELCKAAMEHSRLNRIIATVIHNEVDCDVFFPIDFRSSQSCLPWRKQDHSVLEAWVGSKVPQGKINENGFIYEFEMWIRDI [R38P], which “selection coefficient … (log2)” value (methotrexate 8.8 µM) is on record?
**A.** 0.228 ± 0.036

**Q.** And the “selection coefficient … (log2)” value (methotrexate 44 µM)?
**A.** 0.323 ± 0.076

**Q.** Which results are given for MDWQKSLTLIVALTLSRGIGLKNDLPWKLKSDMMFFSQVTSGLLVTRSTGQMNVVLMGRKTWESLPAHSRPLKNRINVVISRQEVLDLGGGAYHARSLDDALALLSQIYDSTSKIQLNRVFVIGGGELCKAAMEHSRLNRIIATVIHNEVDCDVFFPIDFRSSQSCLPWRKQDHSVLEAWVGSKVPQGKINENGFIYEFEMWIRDI [R38Q]?
**A.** selection coefficient against synonymous wild-type codons (log2) (methotrexate 8.8 µM): 0.107 ± 0.037; selection coefficient against synonymous wild-type codons (log2) (methotrexate 44 µM): 0.149 ± 0.071

**Q.** For MDWQKSLTLIVALTLSRGIGLKNDLPWKLKSDMMFFSWVTSGLLVTRSTGQMNVVLMGRKTWESLPAHSRPLKNRINVVISRQEVLDLGGGAYHARSLDDALALLSQIYDSTSKIQLNRVFVIGGGELCKAAMEHSRLNRIIATVIHNEVDCDVFFPIDFRSSQSCLPWRKQDHSVLEAWVGSKVPQGKINENGFIYEFEMWIRDI [R38W], which “selection coefficient … (log2)” value (methotrexate 8.8 µM) is on record?
**A.** -0.114 ± 0.015

**Q.** What about the “selection coefficient … (log2)” value (methotrexate 44 µM) of the same variant?
**A.** -0.169 ± 0.12

**Q.** For MDWQKSLTLIVALTLSRGIGLKNDLPWKLKSDMMFFSVVTSGLLVTRSTGQMNVVLMGRKTWESLPAHSRPLKNRINVVISRQEVLDLGGGAYHARSLDDALALLSQIYDSTSKIQLNRVFVIGGGELCKAAMEHSRLNRIIATVIHNEVDCDVFFPIDFRSSQSCLPWRKQDHSVLEAWVGSKVPQGKINENGFIYEFEMWIRDI [R38V], which “selection coefficient … (log2)” value (methotrexate 8.8 µM) is on record?
**A.** -0.135 ± 0.041

**Q.** And the “selection coefficient … (log2)” value (methotrexate 44 µM)?
**A.** -0.0243 ± 0.089

**Q.** For MDWQKSLTLIVALTLSRGIGLKNDLPWKLKSDMMFFSSVTSGLLVTRSTGQMNVVLMGRKTWESLPAHSRPLKNRINVVISRQEVLDLGGGAYHARSLDDALALLSQIYDSTSKIQLNRVFVIGGGELCKAAMEHSRLNRIIATVIHNEVDCDVFFPIDFRSSQSCLPWRKQDHSVLEAWVGSKVPQGKINENGFIYEFEMWIRDI [R38S], which “selection coefficient … (log2)” value (methotrexate 8.8 µM) is on record?
**A.** 0.0387 ± 0.039

**Q.** What about the “selection coefficient … (log2)” value (methotrexate 44 µM) of the same variant?
**A.** 0.00399 ± 0.063

**Q.** With MDWQKSLTLIVALTLSRGIGLKNDLPWKLKSDMMFFSTVTSGLLVTRSTGQMNVVLMGRKTWESLPAHSRPLKNRINVVISRQEVLDLGGGAYHARSLDDALALLSQIYDSTSKIQLNRVFVIGGGELCKAAMEHSRLNRIIATVIHNEVDCDVFFPIDFRSSQSCLPWRKQDHSVLEAWVGSKVPQGKINENGFIYEFEMWIRDI [R38T] as the variant, how does the “selection coefficient … (log2)” value (methotrexate 8.8 µM) read?
**A.** 0.0389 ± 0.086

**Q.** What about the “selection coefficient … (log2)” value (methotrexate 44 µM) of the same variant?
**A.** 0.139 ± 0.075

**Q.** What does the source list for MDWQKSLTLIVALTLSRGIGLKNDLPWKLKSDMMFFSNVTSGLLVTRSTGQMNVVLMGRKTWESLPAHSRPLKNRINVVISRQEVLDLGGGAYHARSLDDALALLSQIYDSTSKIQLNRVFVIGGGELCKAAMEHSRLNRIIATVIHNEVDCDVFFPIDFRSSQSCLPWRKQDHSVLEAWVGSKVPQGKINENGFIYEFEMWIRDI [R38N]?
**A.** selection coefficient against synonymous wild-type codons (log2) (methotrexate 8.8 µM): 0.165 ± 0.051; selection coefficient against synonymous wild-type codons (log2) (methotrexate 44 µM): 0.162 ± 0.075

**Q.** For MDWQKSLTLIVALTLSRGIGLKNDLPWKLKSDMMFFSYVTSGLLVTRSTGQMNVVLMGRKTWESLPAHSRPLKNRINVVISRQEVLDLGGGAYHARSLDDALALLSQIYDSTSKIQLNRVFVIGGGELCKAAMEHSRLNRIIATVIHNEVDCDVFFPIDFRSSQSCLPWRKQDHSVLEAWVGSKVPQGKINENGFIYEFEMWIRDI [R38Y], which “selection coefficient … (log2)” value (methotrexate 8.8 µM) is on record?
**A.** -0.182 ± 0.047

**Q.** And the “selection coefficient … (log2)” value (methotrexate 44 µM)?
**A.** -0.195 ± 0.12

**Q.** What does the source list for MDWQKSLTLIVALTLSRGIGLKNDLPWKLKSDMMFFSMVTSGLLVTRSTGQMNVVLMGRKTWESLPAHSRPLKNRINVVISRQEVLDLGGGAYHARSLDDALALLSQIYDSTSKIQLNRVFVIGGGELCKAAMEHSRLNRIIATVIHNEVDCDVFFPIDFRSSQSCLPWRKQDHSVLEAWVGSKVPQGKINENGFIYEFEMWIRDI [R38M]?
**A.** selection coefficient against synonymous wild-type codons (log2) (methotrexate 8.8 µM): -0.0204 ± 0.028; selection coefficient against synonymous wild-type codons (log2) (methotrexate 44 µM): 0.00949 ± 0.027

**Q.** Which “selection coefficient … (log2)” value (methotrexate 8.8 µM) does the source give for MDWQKSLTLIVALTLSRGIGLKNDLPWKLKSDMMFFSRCTSGLLVTRSTGQMNVVLMGRKTWESLPAHSRPLKNRINVVISRQEVLDLGGGAYHARSLDDALALLSQIYDSTSKIQLNRVFVIGGGELCKAAMEHSRLNRIIATVIHNEVDCDVFFPIDFRSSQSCLPWRKQDHSVLEAWVGSKVPQGKINENGFIYEFEMWIRDI [V39C] here?
**A.** 0.0977 ± 0.018

**Q.** And the “selection coefficient … (log2)” value (methotrexate 44 µM)?
**A.** 0.0677 ± 0.023

**Q.** MDWQKSLTLIVALTLSRGIGLKNDLPWKLKSDMMFFSRETSGLLVTRSTGQMNVVLMGRKTWESLPAHSRPLKNRINVVISRQEVLDLGGGAYHARSLDDALALLSQIYDSTSKIQLNRVFVIGGGELCKAAMEHSRLNRIIATVIHNEVDCDVFFPIDFRSSQSCLPWRKQDHSVLEAWVGSKVPQGKINENGFIYEFEMWIRDI [V39E] was tested. Which “selection coefficient … (log2)” value (methotrexate 8.8 µM) did it give?
**A.** -0.299 ± 0.12

**Q.** What about the “selection coefficient … (log2)” value (methotrexate 44 µM) of the same variant?
**A.** -0.0609 ± 0.033

**Q.** Which “selection coefficient … (log2)” value (methotrexate 8.8 µM) does the source give for MDWQKSLTLIVALTLSRGIGLKNDLPWKLKSDMMFFSRATSGLLVTRSTGQMNVVLMGRKTWESLPAHSRPLKNRINVVISRQEVLDLGGGAYHARSLDDALALLSQIYDSTSKIQLNRVFVIGGGELCKAAMEHSRLNRIIATVIHNEVDCDVFFPIDFRSSQSCLPWRKQDHSVLEAWVGSKVPQGKINENGFIYEFEMWIRDI [V39A] here?
**A.** 0.275 ± 0.034

**Q.** And the “selection coefficient … (log2)” value (methotrexate 44 µM)?
**A.** 0.285 ± 0.044

**Q.** Which “selection coefficient … (log2)” value (methotrexate 8.8 µM) does the source give for MDWQKSLTLIVALTLSRGIGLKNDLPWKLKSDMMFFSRDTSGLLVTRSTGQMNVVLMGRKTWESLPAHSRPLKNRINVVISRQEVLDLGGGAYHARSLDDALALLSQIYDSTSKIQLNRVFVIGGGELCKAAMEHSRLNRIIATVIHNEVDCDVFFPIDFRSSQSCLPWRKQDHSVLEAWVGSKVPQGKINENGFIYEFEMWIRDI [V39D] here?
**A.** -0.38 ± 0.11

**Q.** And the “selection coefficient … (log2)” value (methotrexate 44 µM)?
**A.** -0.229 ± 0.091

**Q.** Which results are given for MDWQKSLTLIVALTLSRGIGLKNDLPWKLKSDMMFFSRFTSGLLVTRSTGQMNVVLMGRKTWESLPAHSRPLKNRINVVISRQEVLDLGGGAYHARSLDDALALLSQIYDSTSKIQLNRVFVIGGGELCKAAMEHSRLNRIIATVIHNEVDCDVFFPIDFRSSQSCLPWRKQDHSVLEAWVGSKVPQGKINENGFIYEFEMWIRDI [V39F]?
**A.** selection coefficient against synonymous wild-type codons (log2) (methotrexate 8.8 µM): 0.222 ± 0.026; selection coefficient against synonymous wild-type codons (log2) (methotrexate 44 µM): 0.285 ± 0.089
